Data as given in paper PMC9726891, “SESAME-catalyzed H3T11 phosphorylation inhibits Dot1-catalyzed H3K79me3 to regulate autophagy and telomere silencing” (Nature Communications, 2022).

Target: T1, purified endogenous SIR complex (Sir2-FLAG) (S. cerevisiae (endogenous in yeast), UniProt P06700; P06701; P11978 1-1358)
T1 construct: NAD-dependent histone deacetylase Sir2, S. cerevisiae; Sir3, S. cerevisiae; named as a subunit of the SIR complex in the introduction; Sir4, S. cerevisiae; also called silent information regulator complex; not shown: FLAG, C-terminal, kept; copies: + +
Test: pull-down; 1.0 µg biotinylated histone peptide incubated with 1 µg purified SIR complex (Sir2-FLAG) in 50 mM Tris-HCl pH 7.5, 250 mM NaCl, 0.1% NP-40, overnight at 4 °C; Streptavidin beads; immunoblot
Settings: both partners purified

T1 sequence (P06700 whole entry, chain 1 of 3): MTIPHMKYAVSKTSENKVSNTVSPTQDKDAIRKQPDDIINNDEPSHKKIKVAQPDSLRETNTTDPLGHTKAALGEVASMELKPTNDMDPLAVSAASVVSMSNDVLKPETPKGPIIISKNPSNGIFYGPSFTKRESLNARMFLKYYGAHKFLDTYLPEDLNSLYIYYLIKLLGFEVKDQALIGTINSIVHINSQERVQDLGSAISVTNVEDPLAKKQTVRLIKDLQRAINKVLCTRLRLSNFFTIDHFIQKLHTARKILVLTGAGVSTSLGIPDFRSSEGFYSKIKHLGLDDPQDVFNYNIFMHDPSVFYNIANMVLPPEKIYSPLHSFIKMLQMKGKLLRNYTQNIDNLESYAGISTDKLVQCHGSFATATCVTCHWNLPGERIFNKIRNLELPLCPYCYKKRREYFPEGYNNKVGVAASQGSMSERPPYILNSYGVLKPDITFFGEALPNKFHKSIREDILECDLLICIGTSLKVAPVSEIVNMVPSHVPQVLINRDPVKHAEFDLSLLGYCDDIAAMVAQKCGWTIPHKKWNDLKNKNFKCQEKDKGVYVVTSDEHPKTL
T1 sequence (P06701 whole entry, chain 2 of 3, further chain): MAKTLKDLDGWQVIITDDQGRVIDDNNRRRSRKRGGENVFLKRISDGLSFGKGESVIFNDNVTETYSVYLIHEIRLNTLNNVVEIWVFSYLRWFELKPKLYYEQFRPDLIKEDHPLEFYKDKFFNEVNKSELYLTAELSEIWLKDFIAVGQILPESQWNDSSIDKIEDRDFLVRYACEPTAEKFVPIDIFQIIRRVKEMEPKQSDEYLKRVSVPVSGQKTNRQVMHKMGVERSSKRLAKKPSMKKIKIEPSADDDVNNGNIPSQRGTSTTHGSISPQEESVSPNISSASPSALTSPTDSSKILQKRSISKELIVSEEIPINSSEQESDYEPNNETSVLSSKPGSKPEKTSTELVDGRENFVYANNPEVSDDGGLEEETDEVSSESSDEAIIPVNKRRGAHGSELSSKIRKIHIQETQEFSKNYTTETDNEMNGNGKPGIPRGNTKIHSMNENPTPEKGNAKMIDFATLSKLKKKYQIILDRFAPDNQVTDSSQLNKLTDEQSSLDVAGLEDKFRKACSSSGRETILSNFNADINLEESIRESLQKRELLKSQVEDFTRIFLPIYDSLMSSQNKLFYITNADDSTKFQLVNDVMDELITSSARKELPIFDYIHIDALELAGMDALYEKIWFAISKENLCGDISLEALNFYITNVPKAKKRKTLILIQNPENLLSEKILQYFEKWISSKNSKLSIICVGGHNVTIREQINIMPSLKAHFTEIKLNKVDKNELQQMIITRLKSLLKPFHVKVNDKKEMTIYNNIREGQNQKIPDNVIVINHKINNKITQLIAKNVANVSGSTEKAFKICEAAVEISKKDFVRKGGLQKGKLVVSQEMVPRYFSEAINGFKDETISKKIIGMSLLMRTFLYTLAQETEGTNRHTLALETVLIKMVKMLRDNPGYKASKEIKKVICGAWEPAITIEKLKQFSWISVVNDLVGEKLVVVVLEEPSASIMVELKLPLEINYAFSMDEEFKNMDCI
T1 sequence (P11978 whole entry, chain 3 of 3, further chain): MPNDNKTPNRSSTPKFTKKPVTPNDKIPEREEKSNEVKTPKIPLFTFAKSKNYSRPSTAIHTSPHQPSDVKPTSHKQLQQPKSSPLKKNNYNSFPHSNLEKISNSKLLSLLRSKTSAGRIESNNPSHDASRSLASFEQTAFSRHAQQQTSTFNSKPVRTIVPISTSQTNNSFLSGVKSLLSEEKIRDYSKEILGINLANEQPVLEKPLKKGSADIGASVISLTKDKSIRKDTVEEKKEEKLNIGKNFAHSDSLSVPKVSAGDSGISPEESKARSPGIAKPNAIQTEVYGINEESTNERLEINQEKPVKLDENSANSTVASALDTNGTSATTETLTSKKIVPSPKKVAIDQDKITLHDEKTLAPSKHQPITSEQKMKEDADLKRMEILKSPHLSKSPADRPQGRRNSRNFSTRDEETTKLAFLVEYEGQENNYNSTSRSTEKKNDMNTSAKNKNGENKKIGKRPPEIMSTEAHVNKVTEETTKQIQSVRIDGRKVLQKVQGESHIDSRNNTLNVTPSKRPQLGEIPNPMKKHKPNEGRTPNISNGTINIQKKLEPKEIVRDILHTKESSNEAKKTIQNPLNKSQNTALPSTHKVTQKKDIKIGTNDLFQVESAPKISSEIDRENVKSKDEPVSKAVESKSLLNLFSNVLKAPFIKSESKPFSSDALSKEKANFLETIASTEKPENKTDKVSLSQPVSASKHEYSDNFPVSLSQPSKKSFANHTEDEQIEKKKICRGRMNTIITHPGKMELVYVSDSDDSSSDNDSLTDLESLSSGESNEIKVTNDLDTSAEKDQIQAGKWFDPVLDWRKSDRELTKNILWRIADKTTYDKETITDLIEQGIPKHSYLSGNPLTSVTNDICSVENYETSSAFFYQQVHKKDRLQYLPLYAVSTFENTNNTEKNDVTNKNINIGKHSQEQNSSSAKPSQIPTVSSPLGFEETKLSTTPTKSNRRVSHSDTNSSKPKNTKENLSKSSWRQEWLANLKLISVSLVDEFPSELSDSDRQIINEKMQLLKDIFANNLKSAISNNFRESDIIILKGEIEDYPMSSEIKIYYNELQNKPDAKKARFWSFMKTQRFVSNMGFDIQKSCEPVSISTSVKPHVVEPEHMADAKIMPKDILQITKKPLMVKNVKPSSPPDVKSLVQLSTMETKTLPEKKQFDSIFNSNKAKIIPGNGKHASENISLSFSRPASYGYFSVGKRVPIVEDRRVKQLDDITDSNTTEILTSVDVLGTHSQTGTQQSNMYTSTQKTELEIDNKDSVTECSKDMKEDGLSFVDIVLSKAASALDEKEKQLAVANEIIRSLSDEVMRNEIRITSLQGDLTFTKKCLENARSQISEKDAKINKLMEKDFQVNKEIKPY

B1: H3pT11 ([…]) peptide (peptide)
peptide: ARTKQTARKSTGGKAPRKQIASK
modifications: phosphothreonine at T11; biotin (position not given)
notes: histone H3 […]; also called H3T11 phosphorylated (H3pT11) H3 ([…]) peptide; H3pT11 peptide; source: synthetic peptide (biotinylated histone peptide)
  binding result: binds
